The results in this text go back to the supplement of paper PMC10126150.

Values marked as one replicate rest on one cluster of the flow cell; about a third of the high ones do not repeat.

The test system of the series is ATP. Kind of series: switch fluorescence ratio, 500 uM ATP over buffer (Cy3 cluster intensity, sum of 5 cycles each) (fold (ratio)); higher = stronger signal-on switching upon ATP binding; sequences stand for … in TCGTCGGCAGCGTCAGATGTGTATAAGAGACAGTTTTTTTTTTTTTTTTTTTTTTTTT…TC. To be noted: aptamer strand: ATP DNA aptamer (quencher-CACCTGGGGGAGTATTGCGGAGGAAGG + anchor), 100 nM annealed; ATP concentration: 500 uM; one replicate. The procedure, abridged: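 The fluorescence ratio divides summed target-cycle Cy3 intensity by summed buffer-cycle Cy3 intensity for each cluster and is averaged per switch-domain sequence. Cy3-labelled switching-strand clusters on a modified Illumina MiSeq flow-cell were annealed to 100 nM quencher-labelled ATP aptamer, then imaged in selection buffer and again after 15 min with 500 uM ATP at 22 °C. Five such cycles were run, with NaOH stripping and re-annealing between them, and clusters outside 100-1000 RFU were excluded.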
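Also: ATP exposure 15 min at 22 °C before imaging.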

As for CATAGGTGAT, the switch fluorescence ratio worked out at 1.01.
As to ACCTTACACC, the switch fluorescence ratio was found to be 1.7.
Consider CCGTCCTGCT, for which the switch fluorescence ratio worked out at 1.03.
The result for CTGACTCCTA reads 1.83.
With CCCGGTTCGT, the switch fluorescence ratio came to 1.02.
Regarding GCGGACGGTT, the switch fluorescence ratio came to 1.02.
As for AATCTTAGGG, the figure is 0.958; as for CTTTGATGAG, 0.975; as for GAGGTCAACC, 1.13.
The result for ATTAATCTTT reads 1.01; that for GAACTAATAG, 0.996; that for CAGCATCGGA, 0.999.
The result for GACACCACCA reads 1.4; that for CACGATTAGA, 1.06.
TAGACGATAG: the switch fluorescence ratio was 0.941.
Regarding AAGCTTAGGT, the switch fluorescence ratio was determined as 1.02.
Consider GCCACTAATT, for which the switch fluorescence ratio came to 1.03.
As for TTTGCCTTCA, the figure is 1.42.
For the sequence GAATATCTT, the switch fluorescence ratio amounted to 0.962.
For the sequence GCGCGTCGGC, the switch fluorescence ratio worked out at 0.981.
The result for AGACCGTA reads 1.14; that for GAACTACAAT, 1.02; that for ACGTTAGATG, 1.12.
With TATGGAACGG, the switch fluorescence ratio amounted to 0.956.
Regarding GGTGTAGGGC, the switch fluorescence ratio was 1.08.
For the sequence CAAGACGACT, the switch fluorescence ratio amounted to 1.08.
Take GAATAGGTTT: the switch fluorescence ratio is 0.963.
The result for CGGAAAAACA reads 1.06; that for TCAAAGTGGC, 1.06; that for CGGCTGGCAG, 0.974.
The result for TCCGTGGAGT reads 1.04; that for CTAGTGTGG, 0.966; that for CAGGCACGGG, 1.01.
As for TTTTTAATT, the figure is 0.91; as for ATTGTGCATG, 0.978; as for GACTAGGCTC, 1.
Turning to AGTTAAATCC, the switch fluorescence ratio came to 1.02.
The result for AATGGGAGCG reads 0.959; that for TAGCAGTCCG, 0.908; that for TTATTTGTAG, 1.03.
The result for TGAGTTGCCA reads 1.
As for TATGAGACAC, the figure is 1.02; as for GAAGTGAAGA, 0.989; as for CACACGGTCC, 1.07.
With TATGTGAA, the switch fluorescence ratio was found to be 0.964.
For ATTGCTTA, the switch fluorescence ratio was determined as 1.03.
The result for CAACAGAAGT reads 1.01.
Consider TATGTGGCTA, for which the switch fluorescence ratio was determined as 0.938.
The result for AACTAGACTC reads 1.09.
As for GGGGTTGATT, the figure is 0.971; as for GCGATAATA, 0.996.
As for AAACGGAGGA, the figure is 1.04.
Turning to GGTGTGTGCC, the switch fluorescence ratio worked out at 0.998.
The result for AGTATCCAAC reads 0.996; that for TCTGATTCTA, 0.981.
The result for AAGTAAGGC reads 1.06; that for GCTAAGAGTA, 0.98.
The result for TCGTGGTCAG reads 1.02.
With CCAAGGGTTA, the switch fluorescence ratio came out at 1.02.
As for AACAACTAGA, the figure is 1.03.
As for ATGTATGATT, the switch fluorescence ratio came to 1.03.
CTGACGTGTC: the switch fluorescence ratio stood at 1.31.
The result for TGGTGAGTGT reads 1.07; that for AGAAATCAGG, 0.975.
As for GCACTAACAA, the switch fluorescence ratio is 1.11.
As to TATTGCGC, the switch fluorescence ratio came to 1.02.
As to ATTGTGGTCT, the switch fluorescence ratio is 1.03.
The result for TTGTGATGCA reads 1.04; that for CCTGCGATCA, 1.75; that for TCCCGTCGGA, 1.
As for GTGTGCGCAG, the figure is 0.984; as for GTTAGAGGTC, 0.957.
As to GGTTGGGCAG, the switch fluorescence ratio was 0.963.
The result for TAATTTGCTT reads 0.982; that for CAAGACCCCA, 0.995; that for CGTCTGACAA, 1.77.
The result for AGGGCGCAAG reads 1.01.
As for ACTCACTTGT, the figure is 1.14.
Regarding TTCAGTGCTC, the switch fluorescence ratio was found to be 0.992.
The result for TTAGCTTATT reads 0.983.
For GACTGGATTA, the switch fluorescence ratio is 1.03.
On to TATTCGTCCT, for which the switch fluorescence ratio came to 1.02.
For the sequence TCCCGCCCTT, the switch fluorescence ratio was found to be 1.11.
As for CGCTTGAGCG, the figure is 0.968; as for AATGGAAATA, 1.04.
For GTTGAGCTTA, the switch fluorescence ratio stood at 0.997.
The result for ATTATGGCAG reads 0.997.
Turning to TACTTCCATA, the switch fluorescence ratio was determined as 1.1.
Consider AGGGTTGGA, for which the switch fluorescence ratio stood at 1.01.
The result for GATATGTTCT reads 1.03.
As to CTAAAGACGG, the switch fluorescence ratio worked out at 1.04.
As for CGATCGCGGC, the figure is 2.6; as for GGGGCTTCGA, 0.963; as for GGTGATAGCC, 0.964.
The result for GACCCTGTCG reads 0.991.
The result for CTTCGTCAGT reads 1.34; that for CTTGGTACAC, 1.02; that for ACTCGCTTGC, 1.86.
For TGCCGGATGG, the switch fluorescence ratio was 0.983.
On to GGCCAGAGAC, for which the switch fluorescence ratio was found to be 0.994.
In the case of TCATGGGCGA, the switch fluorescence ratio was found to be 1.02.
The result for CCCGTCAGAT reads 1.15; that for CATTAGAGGA, 0.998; that for CTCAATACTA, 2.2.
The result for TAGATATGGA reads 1.08; that for TCGACGCACC, 3.82; that for GCCAGCATGT, 0.993.
Regarding TGTCGAAAAT, the switch fluorescence ratio turned out to be 0.982.
As for AGTGTGTAGG, the switch fluorescence ratio is 1.03.
As for GTCACTGTAC, the figure is 1.77; as for CCTGCATTCT, 1.93; as for ACGGTATTCT, 1.16.
CGACGAAGTA: the switch fluorescence ratio is 1.29.
On to TTCCTCGGA, for which the switch fluorescence ratio is 1.11.
The result for CCTAACGATT reads 1; that for GGGCCAAGCA, 1.01; that for ACCAATTAC, 1.46.
As for CGAACGCTTT, the figure is 2.71; as for TAACGTACGA, 1.66; as for TTAGTGATGG, 1.01.
